# Measurements as given in the supplement of paper PMC8728848.
# Some of the results follow.
# Legend:
# Assay in all cases: glycan array binding signal (z-score within array); higher = stronger binding
# Settings in all cases: glycan notation: IUPAC condensed, linker removed
# [1] = biological target: Fuc(a1-3)[Gal3S(b1-4)]GlcNAc
# Summary of the method: (§1)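 Glycan array binding is given as a within-array Z-score, which can be read as non-binding when negative. The arrays, 3228 of them, came from the Consortium for Functional Glycomics database and were retained only where the protein sequence was available. Z-scores were averaged across arrays of the same protein sequence at different concentrations or buffers and across linkers.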
# [2] = biological target: Fuc(a1-3)[Gal3S(b1-4)]GlcNAc6S
# Summary of the method: as §1
# [3] = biological target: Fuc(a1-3)[GalNAc(b1-4)]GlcNAc
# Summary of the method: as §1
# Fuc(a1-4)GlcNAc = biological target: Fuc(a1-4)GlcNAc
# Summary of the method: as §1
# Fuc(b1-3)GlcNAc = biological target: Fuc(b1-3)GlcNAc
# Summary of the method: as §1
# Gal(a1-2)Gal = biological target: Gal(a1-2)Gal
# Summary of the method: as §1
# Gal(a1-3)Gal = biological target: Gal(a1-3)Gal
# Summary of the method: as §1
# Gal(a1-3)Gal(b1-3)GlcNAc = biological target: Gal(a1-3)Gal(b1-3)GlcNAc
# Summary of the method: as §1
# [4] = biological target: Gal(a1-3)Gal(b1-3)GlcNAc(b1-2)Man(a1-3)[Gal(a1-3)Gal(b1-3)GlcNAc(b1-2)Man(a1-6)]Man(b1-4)GlcNAc(b1-4)GlcNAc
# Summary of the method: as §1
# [5] = biological target: Gal(a1-3)Gal(b1-3)[Fuc(a1-4)]GlcNAc(b1-2)Man(a1-3)[Gal(a1-3)Gal(b1-3)[Fuc(a1-4)]GlcNAc(b1-2)Man(a1-6)]Man(b1-4)GlcNAc(b1-4)GlcNAc
# Summary of the method: as §1
# Gal(a1-3)Gal(b1-4)Glc = biological target: Gal(a1-3)Gal(b1-4)Glc
# Summary of the method: as §1
# Gal(a1-3)Gal(b1-4)GlcNAc = biological target: Gal(a1-3)Gal(b1-4)GlcNAc
# Summary of the method: as §1
# [6] = biological target: Gal(a1-3)Gal(b1-4)GlcNAc(b1-3)GalNAc
# Summary of the method: as §1
# [7] = biological target: Gal(a1-3)Gal(b1-4)[Fuc(a1-3)]GlcNAc
# Summary of the method: as §1
# [8] = biological target: Gal(a1-3)Gal(b1-4)[Fuc(a1-3)]GlcNAc(b1-2)Man(a1-3)[Gal(a1-3)Gal(b1-4)[Fuc(a1-3)]GlcNAc(b1-2)Man(a1-6)]Man(b1-4)GlcNAc(b1-4)GlcNAc
# Summary of the method: as §1
# Gal(a1-3)GalNAc = biological target: Gal(a1-3)GalNAc
# Summary of the method: as §1
# [9] = biological target: Gal(a1-3)[Gal(a1-4)]Gal(b1-4)GlcNAc
# Summary of the method: as §1
# [10] = biological target: Gal(a1-4)Gal(b1-3)GlcNAc(b1-2)Man(a1-3)[Gal(a1-4)Gal(b1-3)GlcNAc(b1-2)Man(a1-6)]Man(b1-4)GlcNAc(b1-4)GlcNAc
# Summary of the method: as §1
# Gal(a1-4)Gal(b1-4)Glc = biological target: Gal(a1-4)Gal(b1-4)Glc
# Summary of the method: as §1
# Gal(a1-4)Gal(b1-4)GlcNAc = biological target: Gal(a1-4)Gal(b1-4)GlcNAc
# Summary of the method: as §1
# [11] = biological target: Gal(a1-4)Gal(b1-4)GlcNAc(b1-2)Man(a1-3)[Gal(a1-4)Gal(b1-4)GlcNAc(b1-2)Man(a1-6)]Man(b1-4)GlcNAc(b1-4)GlcNAc
# Summary of the method: as §1
# [12] = biological target: Gal(a1-4)Gal(b1-4)GlcNAc(b1-3)Gal(b1-4)Glc
# Summary of the method: as §1
# Gal(a1-4)GlcNAc = biological target: Gal(a1-4)GlcNAc
# Summary of the method: as §1
# Gal(a1-6)Glc = biological target: Gal(a1-6)Glc
# Summary of the method: as §1
# Gal(b1-2)Gal = biological target: Gal(b1-2)Gal
# Summary of the method: as §1
# Gal(b1-3)Gal = biological target: Gal(b1-3)Gal
# Summary of the method: as §1
# Gal(b1-3)Gal(b1-4)GlcNAc = biological target: Gal(b1-3)Gal(b1-4)GlcNAc
# Summary of the method: as §1
# [13] = biological target: Gal(b1-3)Gal(b1-4)GlcNAc(b1-2)Man(a1-3)[Gal(b1-3)Gal(b1-4)GlcNAc(b1-2)Man(a1-6)]Man(b1-4)GlcNAc(b1-4)GlcNAc
# Summary of the method: as §1
# Gal(b1-3)GalNAc = biological target: Gal(b1-3)GalNAc
# Summary of the method: as §1
# [14] = biological target: Gal(b1-3)GalNAc(a1-3)[Fuc(a1-2)]Gal(b1-4)Glc
# Summary of the method: as §1
# [15] = biological target: Gal(b1-3)GalNAc(a1-3)[Fuc(a1-2)]Gal(b1-4)GlcNAc
# Summary of the method: as §1
# [16] = biological target: Gal(b1-3)GalNAc(b1-3)Gal(a1-4)Gal(b1-4)Glc
# Summary of the method: as §1
# [17] = biological target: Gal(b1-3)GalNAc(b1-4)Gal(b1-4)Glc
# Summary of the method: as §1
# [18] = biological target: Gal(b1-3)GalNAc(b1-4)[Neu5Ac(a2-3)]Gal(b1-4)Glc
# Summary of the method: as §1
# Gal(b1-3)GlcNAc = biological target: Gal(b1-3)GlcNAc
# Summary of the method: as §1
# [19] = biological target: Gal(b1-3)GlcNAc(a1-6)Gal(b1-4)GlcNAc
# Summary of the method: as §1
# [20] = biological target: Gal(b1-3)GlcNAc(b1-2)Man(a1-3)[Gal(b1-3)GlcNAc(b1-2)Man(a1-6)]Man(b1-4)GlcNAc(b1-4)GlcNAc
# Summary of the method: as §1
# [21] = biological target: Gal(b1-3)GlcNAc(b1-2)Man(a1-3)[Gal(b1-3)GlcNAc(b1-2)Man(a1-6)]Man(b1-4)GlcNAc(b1-4)[Fuc(a1-6)]GlcNAc
# Summary of the method: as §1
# [22] = biological target: Gal(b1-3)GlcNAc(b1-3)Gal(b1-3)GlcNAc
# Summary of the method: as §1
# [23] = biological target: Gal(b1-3)GlcNAc(b1-3)Gal(b1-4)Glc
# Summary of the method: as §1
# [24] = biological target: Gal(b1-3)GlcNAc(b1-3)Gal(b1-4)GlcNAc
# Summary of the method: as §1
# [25] = biological target: Gal(b1-3)GlcNAc(b1-3)Gal(b1-4)GlcNAc(b1-6)[Gal(b1-3)GlcNAc(b1-3)]Gal(b1-4)Glc
# Summary of the method: as §1
# [26] = biological target: Gal(b1-3)GlcNAc(b1-3)Gal(b1-4)[Fuc(a1-3)]GlcNAc(b1-6)[Gal(b1-3)GlcNAc(b1-3)]Gal(b1-4)Glc
# Summary of the method: as §1
# [27] = biological target: Gal(b1-3)GlcNAc(b1-3)GalNAc
# Summary of the method: as §1
# [28] = biological target: Gal(b1-3)GlcNAc(b1-6)Gal(b1-4)GlcNAc
# Summary of the method: as §1
binder,measurement,setting,value
Gal 1 (Canis lupus) (protein) MACGLVASNLSLKPGQCLRVQCEVVPEAKSFVLNLGKDGDNLCLHFNPRFEAHGDVNTIVCNSKDGGAWGEELRESAFPFQPGTVTEVCISFDQADLTIKLPDGYTFKFPNRLNLEAISYLAADGDMKIKCLAFD,glycan array binding signal (z-score),[1],-0.326
same,glycan array binding signal (z-score),[2],0.03
same,glycan array binding signal (z-score),[3],-0.329
same,glycan array binding signal (z-score),Fuc(a1-4)GlcNAc,-0.341
same,glycan array binding signal (z-score),Fuc(b1-3)GlcNAc,-0.333
same,glycan array binding signal (z-score),Gal(a1-2)Gal,-0.292
same,glycan array binding signal (z-score),Gal(a1-3)Gal,-0.279
same,glycan array binding signal (z-score),Gal(a1-3)Gal(b1-3)GlcNAc,0.129
same,glycan array binding signal (z-score),[4],-0.273
same,glycan array binding signal (z-score),[5],-0.274
same,glycan array binding signal (z-score),Gal(a1-3)Gal(b1-4)Glc,-0.118
same,glycan array binding signal (z-score),Gal(a1-3)Gal(b1-4)GlcNAc,0.422
same,glycan array binding signal (z-score),[6],0.143
same,glycan array binding signal (z-score),[7],-0.32
same,glycan array binding signal (z-score),[8],-0.332
same,glycan array binding signal (z-score),Gal(a1-3)GalNAc,-0.329
same,glycan array binding signal (z-score),[9],-0.322
same,glycan array binding signal (z-score),[10],-0.318
same,glycan array binding signal (z-score),Gal(a1-4)Gal(b1-4)Glc,-0.331
same,glycan array binding signal (z-score),Gal(a1-4)Gal(b1-4)GlcNAc,-0.342
same,glycan array binding signal (z-score),[11],-0.268
same,glycan array binding signal (z-score),[12],-0.294
same,glycan array binding signal (z-score),Gal(a1-4)GlcNAc,-0.341
same,glycan array binding signal (z-score),Gal(a1-6)Glc,-0.331
same,glycan array binding signal (z-score),Gal(b1-2)Gal,-0.323
same,glycan array binding signal (z-score),Gal(b1-3)Gal,-0.278
same,glycan array binding signal (z-score),Gal(b1-3)Gal(b1-4)GlcNAc,0.262
same,glycan array binding signal (z-score),[13],6.47
same,glycan array binding signal (z-score),Gal(b1-3)GalNAc,-0.304
same,glycan array binding signal (z-score),[14],-0.303
same,glycan array binding signal (z-score),[15],-0.341
same,glycan array binding signal (z-score),[16],-0.328
same,glycan array binding signal (z-score),[17],-0.297
same,glycan array binding signal (z-score),[18],-0.312
same,glycan array binding signal (z-score),Gal(b1-3)GlcNAc,-0.001
same,glycan array binding signal (z-score),[19],0.23
same,glycan array binding signal (z-score),[20],0.898
same,glycan array binding signal (z-score),[21],0.292
same,glycan array binding signal (z-score),[22],0.302
same,glycan array binding signal (z-score),[23],0.425
same,glycan array binding signal (z-score),[24],0.282
same,glycan array binding signal (z-score),[25],2.68
same,glycan array binding signal (z-score),[26],2.94
same,glycan array binding signal (z-score),[27],0.035
same,glycan array binding signal (z-score),[28],0.225
